# Test results taken from the supplement of paper PMC4166925.
# ± gives the standard deviation of the averaged measurements. The full ranking holds about 33,000 sequences; the median of “E-score (dimensionless, -0.5 to 0.5)” is about -0.049, and the highest 2% start at about 0.37. The list shows a part of the results.
# Test system: T1, PmTbr T-box DNA-binding domain (GST fusion)
# T1 sequence: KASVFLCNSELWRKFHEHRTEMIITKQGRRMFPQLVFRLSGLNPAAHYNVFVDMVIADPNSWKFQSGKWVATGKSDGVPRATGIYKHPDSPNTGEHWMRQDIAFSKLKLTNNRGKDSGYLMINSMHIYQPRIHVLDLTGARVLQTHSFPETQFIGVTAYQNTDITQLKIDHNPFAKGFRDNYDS
# Test: PBM E-score of 8-mer (E-score (dimensionless, -0.5 to 0.5)); Tbr is Tbrain of the sea star Patiria miniata (Pm) or the sea urchin Strongylocentrotus purpuratus (Sp); higher = stronger binding preference; most listed sequences are background and not binding sites
# Conditions: the construct has about 5 more residues each side
# Outline: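 Each ungapped 8-mer received an enrichment E-score from the Universal PBM Analysis Suite, averaged over duplicate arrays. The proteins were Tbr T-box DNA-binding domains, covering the whole T-box plus about five flanking residues, fused to GST and expressed in BL21 E. coli at 20 °C before glutathione affinity purification. Universal Agilent oligonucleotide arrays were made double-stranded by primer extension and incubated with 200 nM protein in PBS (pH 7.5). The arrays were then scanned and quantified, and every 8-mer was scored from probe intensities.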
row,Sequence,PBM E-score of 8-mer
1,GGGGACTA,-0.238 ± 0.0003
2,CTGGTACA,-0.107 ± 0.022
3,GAAAGGCC,-0.14 ± 0.095
4,GGGAACCA,-0.241 ± 0.017
5,CAAAACAG,0.0766 ± 0.048
6,CCTTACTC,-0.235 ± 0.019
7,GCGGTGGA,-0.182 ± 0.0027
8,AGGCGGAT,-0.128 ± 0.016
9,CACTTCTC,0.315 ± 0.008
10,ATTGCGAC,0.124 ± 0.017
11,CGGCTGAG,-0.1 ± 0.073
12,CTCCCGAG,-0.136 ± 0.099
13,AGCTTATC,-0.0151 ± 0.013
14,CGAGTGCA,-0.0272 ± 0.087
15,CTCGTAAG,-0.0899 ± 0.055
16,GCATGTAC,-0.214 ± 0.029
17,GGTGAGCA,0.212 ± 0.044
18,CATAGCAA,-0.144 ± 0.047
19,ATATTAAA,-0.0562 ± 0.061
20,CGGTACCA,-0.0668 ± 0.077
21,CTTTACGA,-0.265 ± 0.053
22,TGTTAAAA,0.354 ± 0.043

row,Sequence,PBM E-score of 8-mer
1,CCTGAAGC,-0.102 ± 0.026
2,AAAAAGGA,-0.122 ± 0.064
3,AAGTCCTG,-0.111 ± 0.013
4,TAAGGTGA,0.3578 ± 0.00067
5,ACGCAGGC,-0.0679 ± 0.022
6,CGAAGTAG,0.0743 ± 0.0042
7,CCTAGGCA,-0.0464 ± 0.077
8,CAGTAAAC,-0.125 ± 0.0037
9,ACGTTAGC,0.216 ± 0.034
10,ATGTACTG,-0.142 ± 0.013
11,CTCAGGTA,-0.211 ± 0.05
12,ACGGCTCC,0.0346 ± 0.0058
13,ACAACGAC,0.00975 ± 0.016
14,GAGGCCTC,-0.138 ± 0.035
15,ATTAATAC,-0.0944 ± 0.11
16,CGAGTTAG,-0.0558 ± 0.052
17,GACAGGGA,-0.0314 ± 0.0093
18,AAAGCGTT,0.0875 ± 0.015
19,CCCGTAGG,-0.1 ± 0.044
20,CTACACAA,-0.0889 ± 0.029
21,GGCACCCA,0.217 ± 0.018
22,ATAGCCGG,-0.21 ± 0.0076

row,Sequence,PBM E-score of 8-mer
1,CCTCCATA,-0.11 ± 0.033
2,CGCTCCCA,-0.0363 ± 0.045
3,CCTAACTA,0.0326 ± 0.035
4,ACATTCTG,0.0382 ± 0.084
5,CAAGAGTC,-0.2167 ± 0.0016
6,GTTTGTAA,0.0584 ± 0.043
7,CCCAGATC,-0.0681 ± 0.1
8,ATGGAAAC,-0.0624 ± 0.0055
9,CACTGGGG,-0.0818 ± 0.0066
10,CAGACAAA,-0.0784 ± 0.036
11,GCATAACC,-0.069 ± 0.08
12,ATACCCGG,-0.0648 ± 0.0025
13,GCGTCGTA,-0.18 ± 0.016
14,CCTGCAGA,-0.0394 ± 0.048
15,CACAATGC,-0.04 ± 0.053
16,AACCGCCC,-0.185 ± 0.021
17,ATGAATCG,-0.0917 ± 0.0039
18,GAAAGCAC,0.0502 ± 0.04
19,AGCGGGAC,-0.0638 ± 0.055
20,GATTACGA,-0.00232 ± 0.07
21,GCAGTGGA,-0.223 ± 0.018
22,ACACTTAG,0.416 ± 0.0068

row,Sequence,PBM E-score of 8-mer
1,GACTGCCC,-0.219 ± 0.015
2,GATGGAGC,0.0899 ± 0.0051
3,AAGGCTAA,-0.164 ± 0.031
4,AGTTCTTC,-0.293 ± 0.02
5,ATCTTTTG,-0.2448 ± 0.0018
6,ACTACACG,0.161 ± 0.028
7,CGCTTCAA,0.0949 ± 0.078
8,CCTTTCGA,-0.06 ± 0.02
9,GCGCTTTA,-0.0283 ± 0.047
10,CACGGCTA,0.077 ± 0.043
11,ACGAGAGC,0.0227 ± 0.0097
12,AGGGCTAA,-0.116 ± 0.051
13,ACTAGCTA,0.0589 ± 0.011
14,TCGGACCA,-0.167 ± 0.0061
15,CTATGACC,-0.075 ± 0.029
16,AACTATCG,0.0405 ± 0.087
17,GCGAGATA,0.11 ± 0.011
18,GACTAGGA,-0.0612 ± 0.068
19,AGTTACTA,-0.193 ± 0.023
20,CGATCAAG,-0.0546 ± 0.0099
21,CTGGCCTA,-0.178 ± 0.016
22,GAGCAACA,0.135 ± 0.12

row,Sequence,PBM E-score of 8-mer
1,GCGATAAA,0.242 ± 0.077
2,CGGCGAGC,-0.229 ± 0.024
3,ACTGGGAG,-0.1443 ± 0.0012
4,TGACGGAA,0.115 ± 0.0047
5,AGAGCCCT,-0.258 ± 0.044
6,CGAAGACA,0.217 ± 0.0079
7,AGGCACTG,-0.187 ± 0.04
8,CCTGCAAG,-0.00101 ± 0.0029
9,CCACTGGC,0.162 ± 0.015
10,GCAAATTA,-0.0357 ± 0.0071
11,AACGCGCT,0.228 ± 0.015
12,AAGTTGCC,0.185 ± 0.0098
13,ATGGCCCG,-0.119 ± 0.027
14,AAGGCTCA,-0.202 ± 0.062
15,AGGGGTCA,-0.103 ± 0.048
16,CATTCGTA,-0.0434 ± 0.094
17,TACTCTAA,-0.1712 ± 0.00056
18,ACATCATG,-0.08081 ± 0.00078
19,GCTGACAC,0.398 ± 0.013
20,CAGGCGAA,-0.101 ± 0.048
21,AGCGGGGG,-0.072 ± 0.0086
